Laboratory results reported in PubChem BioAssay AID1508624 (National Center for Advancing Translational Sciences (NCATS), 2021).
In all, about 48,000 compounds went through this assay and about 120 (0.25%) were called active. Another 4% or so got no clear call; they are omitted. The call rests on the fitted dose curve; in most records, active means well fitted activation curve with a large enough effect; inconclusive means small, poorly fitted or top-dose-only effect, or another doubt; inactive means no such curve, though single readings can be large or run the other way. Some of the results follow.

assay: Primary qHTS for Identification of Small Molecule Activators of Huntingtin-Antisense Promoter Activity; details: HEK293 HTT-AS promoter firefly luciferase reporter (activity 0% = vehicle and -100% = no light), 24 h; series mostly up to 57.5 µM; activity change, positive = activation: at the top concentration; further: nearly all actives have a fitted effect of over 55% in size
How it was run: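 Firefly luciferase readout (Dual-Glo, 10 min RT) after 24 h, 37 °C compound exposure (final up to 57.5 uM) of HEK293 reporter cells cultured 24 h beforehand; PTC124 at 50 uM final as control inhibitor; activity scaled vehicle 0%, zero RLU -100%.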

Row | Structure (SMILES) | activity change, positive = activation
1 | CC12CC3CC(C)(C1)CC(N)(C3)C2 | inactive
2 | O=C(Nc1ccc(S(=O)(=O)N2CCOCC2)cc1)c1cc(Cl)ccc1NS(=O)(=O)c1ccc(Cl)s1 | inactive: -7%
3 | CN1C(C(=O)Nc2ccccn2)=C(O)c2sc(Cl)cc2S1(=O)=O | inactive: -47.7%
4 | O=C(CN1C(=O)CC(c2ccco2)Sc2ccccc21)Nc1cccc(C(F)(F)F)c1 (configuration not stated) | inactive: -40.5%
5 | O=C(CSc1nc2c(c(=O)[nH]1)CCCC2)Nc1ccccc1C(F)(F)F | inactive: -18.2%
6 | CC(C)c1ccc(S(=O)(=O)c2cn(CC(=O)Nc3ccc(F)cc3)c3ccccc3c2=O)cc1 | inactive: -6.69%
7 | COc1ccc(Cl)cc1NC(=O)CSc1nnc2[nH]c(=O)cc(C)n12 | inactive: -0.656%
8 | CCOc1ccc(-c2nc(C(N)=O)c3c(n2)n(-c2ccc4c(c2)OCO4)c(=O)n3CC)cc1 | inactive: -7.04%
9 | CC1CNc2c(cccc2S(=O)(=O)N[C@@H](CCCN=C(N)N)C(=O)N2CC[C@@H](C)C[C@@H]2C(=O)O)C1 (some centres not stated) | inactive: -5.64%
10 | COC(=O)c1cc(S(=O)(=O)N2CCN(c3cc(Cl)ccc3C)CC2)c[nH]1 | inactive: -19.7%
11 | CC1=C(C(N)=O)C(c2ccccc2F)n2nc(-c3ccc(Cl)cc3)nc2N1 (configuration not stated) | inactive: 0.221%
12 | Cc1ccc(CNC(=O)Cn2cc3c(n2)-c2c(oc(C(=O)N4CCOCC4)c2C)CC3)cc1 | inactive: -22.5%
13 | Cc1cc(C)c2oc(C(=O)Nc3c(C(=O)c4ccccc4)oc4ccccc34)cc(=O)c2c1 | inactive: 6.26%
14 | O=S(=O)(NCC(c1ccco1)N1CCOCC1)c1ccc(F)cc1 (configuration not stated) | inactive: -9.49%
15 | COc1ccccc1CNc1ncnc2c1c(-c1ccccc1)cn2-c1ccc(Br)cc1 | inactive: -13.9%
16 | CCN(CC)c1ccc(NC(=O)Cn2c3ncccc3c(=O)n2-c2ccccc2)c(C)c1 | inactive: -11.7%
17 | COc1cc2c(=O)c(C(=O)c3ccc(F)cc3)cn(Cc3cccc(F)c3)c2cc1OC | inactive: -10.1%
18 | Cc1ccc(C(=O)NCCC(C)C)cc1NC(=O)c1nsc2ccccc12 | inactive: -1.38%
19 | O=C(Nc1c(C(=O)c2ccccc2)oc2ccccc12)c1ccc(F)cc1 | inactive: -1.45%
20 | O=C(CN1CCN(Cc2ccc(F)cc2Cl)C1=O)NCCc1ccc(Cl)cc1 | inactive: -5.12%
21 | CC(C)c1nc2ccc(C(=O)NCCCN3CCN(c4ccccc4)CC3)cc2o1 | inactive: -19.3%
22 | O=C1CN(C(=O)c2ccc(S(=O)(=O)N3CCCC3)cc2)C(c2ccccc2)c2cc(Cl)ccc2N1 (configuration not stated) | inactive: -12.7%
23 | CCOc1ccc(C(=O)Nc2ccc3oc(-c4cccc5ccccc45)nc3c2)cc1 | inactive: -18.2%
24 | COc1ccc(OC)c(NC(=O)N2CC(C)Oc3ccc(C)cc32)c1 (configuration not stated) | inactive: -24.2%

Row | Structure (SMILES) | activity change, positive = activation
25 | Cc1ccc(C(=O)c2cn(CC(=O)NCc3ccccc3)c3nc(C)ccc3c2=O)cc1 | inactive: -4.04%
26 | Cc1cc(C)n(CC(=O)Nc2cc(F)ccc2F)c(=O)c1C#N | inactive: -16.1%
27 | COc1ccc(CCN(C)CCCOc2ccc(S(=O)(=O)c3[nH]c4ccccc4c3C(C)C)cc2)cc1OC | inactive: -1.6%
28 | COc1ccc(C(=O)Nc2nc(-c3nnn(-c4ccc(F)cc4F)c3C)ns2)cc1 | inactive: -41.4%
29 | Cc1ccc(O)c(Nc2nc3ccccc3c3nncn23)c1 | inactive: -10.7%
30 | CCC(Sc1nc2cc(OC)c(OC)cc2c(=O)n1Cc1ccc(OC)cc1)C(=O)NCCOC (configuration not stated) | inactive: -6.74%
31 | CC(=O)c1ccc(NC(=O)c2cc(S(=O)(=O)N3CCOCC3)ccc2C)cc1 | inactive: -36.1%
32 | Cc1cc(N2CCN(c3ccccc3)CC2)n2cnnc2n1 | inactive: -28.5%
33 | COc1ccc(CCNC(=O)c2ccc(Cn3c(=O)c4ccccc4n(Cc4ccc(F)cc4Cl)c3=O)cc2)cc1OC | inactive: 7.5%
34 | Cc1nc(-c2ccc(F)cc2)sc1CCNC(=O)c1ccc(OC(C)C)cc1 | inactive: -28.3%
35 | CCN1CCN(C(=O)c2ccc3c(c2)N(Cc2ccccc2)C(=O)c2ccccc2S3(=O)=O)CC1 | inactive: -7.88%
36 | CCOc1ccc(-c2cn3c(n2)sc2cc(C(=O)N4CCCC(C)C4)ccc23)cc1 (configuration not stated) | inactive: 2.84%
37 | CCCN1CCN(CCCNC(=O)c2ccc3c(c2)sc2nc(-c4ccc(OCC)cc4)cn23)CC1 | inactive: -3.81%
38 | Cc1nc(N2CCOCC2)c2c(C(=O)N(C)c3ccccc3)c(C)oc2n1 | inactive: -5.49%
39 | CC(C)Cc1nn2c(=O)cc(COC(=O)c3cccc(NS(C)(=O)=O)c3)nc2s1 | inactive: 5.29%
40 | Cc1cc(C)cc(OCC(=O)N(Cc2ccc(Cl)cc2)C2CCS(=O)(=O)C2)c1 (configuration not stated) | inactive: -15.3%
41 | COc1ccccc1CNC(=O)C1CCN(C2=NS(=O)(=O)C(c3ccc(C)c(C)c3)=C2C)CC1 | inactive: -37.5%
42 | Cc1ccccc1CNC(=O)C(=O)NCC(c1ccc2c(c1)OCO2)N1CCOCC1 (configuration not stated) | inactive: -16%
43 | CN(CCCNC(=O)Cn1ncc2c([nH]c3ccccc32)c1=O)Cc1ccccc1 | inactive: -20.5%
44 | Cc1ccc2c(c1)-c1c(cnn1CC(=O)N1CCN(c3cc(C)ccc3C)CC1)CO2 | inactive: -10.5%
45 | Cc1ccccc1S(=O)(=O)Cc1ccc(C(=O)NCCc2ccccc2)o1 | inactive: 19.5%
46 | CC1CCN(c2csc3ccc(F)cc3c2=O)CC1 | inactive: 24.7%
47 | O=C(NCc1ccc(Cl)cc1)c1ccc(CNS(=O)(=O)c2ccc(F)cc2)cc1 | inactive: -9.98%
